Measured values published in paper PMC4699913.
Results are given in words; binding and its absence hold for the method and conditions named. In cells and extracts the contact can be indirect. Some entries that bind do so weakly or less than the wild type. For part of these data: Where a sequence is shown, tags or fusion partners need not be part of it.

Sequences of proteins named here, by UniProt entry; tags and fusion partners are left off.
UniProt Q92993: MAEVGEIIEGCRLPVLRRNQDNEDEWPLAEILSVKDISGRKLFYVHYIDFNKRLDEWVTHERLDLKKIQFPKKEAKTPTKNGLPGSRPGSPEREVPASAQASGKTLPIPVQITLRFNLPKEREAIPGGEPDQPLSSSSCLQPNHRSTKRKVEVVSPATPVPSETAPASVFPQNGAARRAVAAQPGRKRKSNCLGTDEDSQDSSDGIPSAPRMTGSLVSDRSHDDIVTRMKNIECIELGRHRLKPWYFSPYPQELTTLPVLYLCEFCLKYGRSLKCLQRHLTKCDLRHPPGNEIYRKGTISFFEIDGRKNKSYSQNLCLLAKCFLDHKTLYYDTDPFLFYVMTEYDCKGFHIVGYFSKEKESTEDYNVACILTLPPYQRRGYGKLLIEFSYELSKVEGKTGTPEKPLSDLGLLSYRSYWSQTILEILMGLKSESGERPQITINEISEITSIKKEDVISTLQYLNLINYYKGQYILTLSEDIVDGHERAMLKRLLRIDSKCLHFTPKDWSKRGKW
UniProt O43683: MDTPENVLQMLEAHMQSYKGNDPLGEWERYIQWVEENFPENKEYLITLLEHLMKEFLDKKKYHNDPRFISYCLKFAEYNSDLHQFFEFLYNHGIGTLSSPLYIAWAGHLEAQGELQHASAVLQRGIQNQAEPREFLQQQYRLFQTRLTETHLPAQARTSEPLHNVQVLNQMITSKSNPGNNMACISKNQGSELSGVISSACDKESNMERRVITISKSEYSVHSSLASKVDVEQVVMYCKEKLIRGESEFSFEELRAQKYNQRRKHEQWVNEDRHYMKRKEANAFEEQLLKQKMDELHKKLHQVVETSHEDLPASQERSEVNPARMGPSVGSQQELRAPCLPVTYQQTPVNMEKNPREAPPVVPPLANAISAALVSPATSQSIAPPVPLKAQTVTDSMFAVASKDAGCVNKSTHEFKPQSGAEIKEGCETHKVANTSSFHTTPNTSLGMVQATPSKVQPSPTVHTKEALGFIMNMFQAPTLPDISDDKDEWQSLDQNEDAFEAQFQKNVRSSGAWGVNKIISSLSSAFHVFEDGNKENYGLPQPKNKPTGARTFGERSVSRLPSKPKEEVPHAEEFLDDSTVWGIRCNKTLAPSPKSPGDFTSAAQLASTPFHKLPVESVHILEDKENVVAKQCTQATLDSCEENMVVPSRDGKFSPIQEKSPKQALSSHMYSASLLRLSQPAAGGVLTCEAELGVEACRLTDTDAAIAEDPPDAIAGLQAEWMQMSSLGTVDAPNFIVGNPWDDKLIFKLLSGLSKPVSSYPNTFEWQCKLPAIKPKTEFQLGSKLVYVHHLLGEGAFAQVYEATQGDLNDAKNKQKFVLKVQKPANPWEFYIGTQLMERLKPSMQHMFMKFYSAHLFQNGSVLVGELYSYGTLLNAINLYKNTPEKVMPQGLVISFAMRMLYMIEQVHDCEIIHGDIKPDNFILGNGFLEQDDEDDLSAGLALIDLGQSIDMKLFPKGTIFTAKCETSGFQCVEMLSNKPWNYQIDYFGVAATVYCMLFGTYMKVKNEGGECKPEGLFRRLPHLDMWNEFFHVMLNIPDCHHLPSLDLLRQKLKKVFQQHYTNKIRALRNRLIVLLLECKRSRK
UniProt Q12834: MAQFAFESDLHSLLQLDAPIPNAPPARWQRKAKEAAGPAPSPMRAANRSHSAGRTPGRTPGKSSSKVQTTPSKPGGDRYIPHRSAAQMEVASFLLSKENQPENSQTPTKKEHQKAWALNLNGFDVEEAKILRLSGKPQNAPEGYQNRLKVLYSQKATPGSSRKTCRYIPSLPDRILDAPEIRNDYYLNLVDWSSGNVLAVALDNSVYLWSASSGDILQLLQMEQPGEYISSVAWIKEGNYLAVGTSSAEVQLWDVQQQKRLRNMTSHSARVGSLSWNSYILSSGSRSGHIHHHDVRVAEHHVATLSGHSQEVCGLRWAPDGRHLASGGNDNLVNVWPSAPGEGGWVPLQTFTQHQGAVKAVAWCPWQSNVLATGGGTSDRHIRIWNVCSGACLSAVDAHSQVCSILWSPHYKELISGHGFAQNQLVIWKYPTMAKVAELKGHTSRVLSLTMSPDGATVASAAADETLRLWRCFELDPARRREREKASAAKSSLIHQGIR
UniProt P62136: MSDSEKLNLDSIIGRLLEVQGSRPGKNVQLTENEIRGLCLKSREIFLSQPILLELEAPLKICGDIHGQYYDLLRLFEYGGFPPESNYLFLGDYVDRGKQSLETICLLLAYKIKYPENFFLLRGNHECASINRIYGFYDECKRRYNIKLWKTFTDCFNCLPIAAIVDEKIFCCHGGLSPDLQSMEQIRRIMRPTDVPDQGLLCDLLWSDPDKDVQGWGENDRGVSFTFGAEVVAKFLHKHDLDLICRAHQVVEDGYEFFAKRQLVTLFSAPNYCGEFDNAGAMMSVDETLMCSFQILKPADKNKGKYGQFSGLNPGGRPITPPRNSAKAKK

T1: Flag-BGLF4 (Epstein-Barr virus protein kinase BGLF4) (Epstein-Barr virus) (UniProt P13288)
T1 sequence: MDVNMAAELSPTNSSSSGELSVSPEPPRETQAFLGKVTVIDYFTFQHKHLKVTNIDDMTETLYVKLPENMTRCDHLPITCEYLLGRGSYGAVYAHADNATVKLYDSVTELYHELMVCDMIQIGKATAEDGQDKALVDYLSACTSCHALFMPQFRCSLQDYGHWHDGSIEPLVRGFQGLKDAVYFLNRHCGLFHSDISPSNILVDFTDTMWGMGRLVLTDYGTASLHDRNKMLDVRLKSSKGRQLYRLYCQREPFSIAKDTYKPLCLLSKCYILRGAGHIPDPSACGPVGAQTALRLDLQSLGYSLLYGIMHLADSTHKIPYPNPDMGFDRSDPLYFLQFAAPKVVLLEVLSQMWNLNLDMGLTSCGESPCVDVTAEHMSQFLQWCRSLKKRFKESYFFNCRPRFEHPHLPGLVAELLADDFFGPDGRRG

T2: myc p31^Comet (MAD2L1BP) (UniProt Q15013)
T2 sequence: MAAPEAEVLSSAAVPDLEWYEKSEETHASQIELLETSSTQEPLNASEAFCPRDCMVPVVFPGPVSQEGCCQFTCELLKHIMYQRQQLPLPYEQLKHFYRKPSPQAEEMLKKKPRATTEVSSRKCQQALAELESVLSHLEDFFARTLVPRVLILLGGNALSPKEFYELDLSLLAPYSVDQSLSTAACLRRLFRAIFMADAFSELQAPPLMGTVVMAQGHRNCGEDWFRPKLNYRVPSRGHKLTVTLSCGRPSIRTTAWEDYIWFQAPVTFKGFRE

T3: Flag-MPS1 (UniProt P33981)
T3 sequence: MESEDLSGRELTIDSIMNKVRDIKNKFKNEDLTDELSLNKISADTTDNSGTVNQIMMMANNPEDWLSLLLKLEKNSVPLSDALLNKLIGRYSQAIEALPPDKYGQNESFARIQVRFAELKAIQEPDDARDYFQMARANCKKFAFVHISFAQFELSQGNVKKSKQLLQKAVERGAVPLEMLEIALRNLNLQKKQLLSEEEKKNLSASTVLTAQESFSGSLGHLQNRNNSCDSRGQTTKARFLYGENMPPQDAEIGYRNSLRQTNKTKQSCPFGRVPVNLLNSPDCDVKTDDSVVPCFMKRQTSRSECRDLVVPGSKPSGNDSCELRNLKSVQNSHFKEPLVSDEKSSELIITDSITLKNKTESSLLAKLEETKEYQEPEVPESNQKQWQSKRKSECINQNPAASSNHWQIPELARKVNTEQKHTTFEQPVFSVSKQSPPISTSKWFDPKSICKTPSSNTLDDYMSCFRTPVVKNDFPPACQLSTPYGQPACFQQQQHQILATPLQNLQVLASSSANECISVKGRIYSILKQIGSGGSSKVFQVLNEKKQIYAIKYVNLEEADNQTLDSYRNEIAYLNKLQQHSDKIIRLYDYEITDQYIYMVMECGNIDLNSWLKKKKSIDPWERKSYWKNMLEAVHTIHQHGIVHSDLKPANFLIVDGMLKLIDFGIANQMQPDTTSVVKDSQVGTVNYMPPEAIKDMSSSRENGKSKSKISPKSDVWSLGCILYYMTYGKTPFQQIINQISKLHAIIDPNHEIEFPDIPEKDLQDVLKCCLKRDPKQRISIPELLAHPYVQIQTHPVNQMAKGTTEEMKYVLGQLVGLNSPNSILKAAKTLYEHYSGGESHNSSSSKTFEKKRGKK


Columns and labels:
[1] = molecular target: T1, Flag-BGLF4 (Epstein-Barr virus protein kinase BGLF4) (Epstein-Barr virus); assay: co-IP; Flag immunoprecipitation from extracts of cells co-transfected with V5-PP1α and Flag-BGLF4, Flag-TIP60 or Flag-vector; blot for PP1α
Flag-TIP60 = Flag-TIP60 (UniProt Q92993); assay: as above
myc p31^Comet (MAD2L1BP) = molecular target: T2, myc p31^Comet (MAD2L1BP); assay: co-IP; BGLF4 co-transfected with MPS1, BUB1, CDC20 or p31^Comet in 293T cells; lysates immunoprecipitated with anti-HA, anti-Myc or IgG control; blots with anti-BGLF4, anti-HA, anti-Flag or anti-Myc
Flag-BUB1 = Flag-BUB1 (UniProt O43683); assay: as above
HA-cdc20 = HA-cdc20 (UniProt Q12834); assay: as above
Flag-MPS1 = molecular target: T3, Flag-MPS1; assay: as above

Molecule | binding [1] | binding (Flag-TIP60) | binding (myc p31^Comet (MAD2L1BP)) | binding (Flag-BUB1) | binding (HA-cdc20) | binding (Flag-MPS1)
V5-PP1α (protein phosphatase 1 alpha) (from UniProt P62136 1-330) (enzyme) | binds weakly | binds |  |  |  | 
BGLF4 (as co-transfected in 293T cells, Fig 6B) (enzyme, UniProt P13288 1-429) MDVNMAAELSPTNSSSSGELSVSPEPPRETQAFLGKVTVIDYFTFQHKHLKVTNIDDMTETLYVKLPENMTRCDHLPITCEYLLGRGSYGAVYAHADNATVKLYDSVTELYHELMVCDMIQIGKATAEDGQDKALVDYLSACTSCHALFMPQFRCSLQDYGHWHDGSIEPLVRGFQGLKDAVYFLNRHCGLFHSDISPSNILVDFTDTMWGMGRLVLTDYGTASLHDRNKMLDVRLKSSKGRQLYRLYCQREPFSIAKDTYKPLCLLSKCYILRGAGHIPDPSACGPVGAQTALRLDLQSLGYSLLYGIMHLADSTHKIPYPNPDMGFDRSDPLYFLQFAAPKVVLLEVLSQMWNLNLDMGLTSCGESPCVDVTAEHMSQFLQWCRSLKKRFKESYFFNCRPRFEHPHLPGLVAELLADDFFGPDGRRG |  |  | binds | no binding | binds | binds
